This series relates to ATP. Briefly: switch fluorescence ratio, 500 uM ATP over buffer (Cy3 cluster intensity, sum of 5 cycles each) (fold (ratio)); higher = stronger signal-on switching upon ATP binding; sequences stand for … in TCGTCGGCAGCGTCAGATGTGTATAAGAGACAGTTTTTTTTTTTTTTTTTTTTTTTTT…TC. The note with it: aptamer strand: ATP DNA aptamer (quencher-CACCTGGGGGAGTATTGCGGAGGAAGG + anchor), 100 nM annealed; ATP concentration: 500 uM; one replicate. A digest of the protocol: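 Clusters with intensities outside 100-1000 RFU were excluded. The remaining Cy3-labelled switching-strand clusters on a modified Illumina MiSeq flow-cell had been annealed to 100 nM quencher-labelled ATP aptamer and imaged in selection buffer, then after 15 min with 500 uM ATP at 22 °C, for five cycles separated by NaOH stripping and re-annealing. The fluorescence ratio, averaged per switch-domain sequence, is each cluster's summed target-cycle Cy3 intensity over its summed buffer-cycle Cy3 intensity.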

Sequences with one replicate were seen in a single cluster, so their values are uncertain.
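Further: ATP exposure 15 min at 22 °C before imaging.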

For the sequence GCTTGGGCCC, the switch fluorescence ratio amounted to 1.02.

For CTTTATTATC, the switch fluorescence ratio is 0.961.

As for ATTAGTCCG, the switch fluorescence ratio was 1.04.

On to GGTCGTGTAT, for which the switch fluorescence ratio amounted to 0.982.

With CATTCACTTT, the switch fluorescence ratio stood at 1.03.

As for AAGTTGTTGC, the switch fluorescence ratio came to 0.964.

For the sequence AGCGGAGTAC, the switch fluorescence ratio is 1.1.

With AAAATGCCGT, the switch fluorescence ratio came to 1.01.

As to ACCTAAAACT, the switch fluorescence ratio is 1.1.

On to TGCCATTCGT, for which the switch fluorescence ratio stood at 1.

With TAGCGGCAAA, the switch fluorescence ratio is 0.998.

Take TTTCTCGAGT: the switch fluorescence ratio is 0.966.

As to ACTGAGGAA, the switch fluorescence ratio is 1.01.

For GGCAGACTGC, the switch fluorescence ratio came out at 0.97.

With GCTTTCTCAG, the switch fluorescence ratio amounted to 1.14.

With TAGGCGGATT, the switch fluorescence ratio amounted to 1.03.

Regarding TTGTGGGT, the switch fluorescence ratio was determined as 0.955.

With ACGCAGGCAA, the switch fluorescence ratio was 2.25.

AAATCTAAAC: the switch fluorescence ratio was determined as 1.02.

For CATATGGTCT, the switch fluorescence ratio is 1.03.

Take GGGATTAATA: the switch fluorescence ratio stood at 1.02.

On to GCTCTTGCGC, for which the switch fluorescence ratio is 0.974.

Regarding TCTAACGCGA, the switch fluorescence ratio came to 1.82.

Regarding CCGTTTCGTA, the switch fluorescence ratio stood at 1.04.

As for TAAGTTTAGG, the switch fluorescence ratio stood at 0.987.

As to AGGGAGAT, the switch fluorescence ratio was found to be 1.02.

On to AGGGTGCCTA, for which the switch fluorescence ratio was 1.01.

With TAGATGAGTG, the switch fluorescence ratio is 1.01.

Take ACAGAGAGAC: the switch fluorescence ratio came to 1.03.

Consider TGCTGCGCAG, for which the switch fluorescence ratio stood at 0.996.

ACAACATCCC: the switch fluorescence ratio was 1.02.

Take ATAGTTTGCT: the switch fluorescence ratio was 1.01.

For ACGCCGCTGG, the switch fluorescence ratio was 1.5.

Consider TGGGTAGCGG, for which the switch fluorescence ratio is 0.962.

GCAGCGTCGT: the switch fluorescence ratio stood at 0.98.

As for CGGGCACACA, the switch fluorescence ratio is 1.04.

In the case of CACTGCAGGT, the switch fluorescence ratio stood at 1.03.

For the sequence TGGCAGGGGC, the switch fluorescence ratio stood at 1.04.

In the case of GGTCGGTAGC, the switch fluorescence ratio turned out to be 0.985.

For the sequence AGGATCGGAG, the switch fluorescence ratio was 1.02.

For the sequence ACACGTAGCT, the switch fluorescence ratio is 1.2.

As to TTGGGCTGAA, the switch fluorescence ratio is 1.

For the sequence ATCATGCCGT, the switch fluorescence ratio came to 1.03.

TGAAGCGAGC: the switch fluorescence ratio came to 1.01.

With ATAATTGGTA, the switch fluorescence ratio came to 1.

On to CACTAGGTGT, for which the switch fluorescence ratio worked out at 2.09.

For GAGCATGGAG, the switch fluorescence ratio amounted to 0.992.

As to GCTCCAGGTC, the switch fluorescence ratio was found to be 1.75.

Consider GGAGCAAAAG, for which the switch fluorescence ratio is 1.49.

As to TCCGCTGCTA, the switch fluorescence ratio is 6.36.

Turning to TAGTTTAACT, the switch fluorescence ratio was determined as 0.968.

In the case of CTTGACGGGC, the switch fluorescence ratio was 0.972.

Consider AATGAAAAGC, for which the switch fluorescence ratio came to 0.989.

Regarding GGCCAACGGG, the switch fluorescence ratio was found to be 1.04.

For GCATGGAGGT, the switch fluorescence ratio came to 1.02.

Take TAGTTTAA: the switch fluorescence ratio turned out to be 0.966.

As to TACCTGTAC, the switch fluorescence ratio turned out to be 1.33.

Turning to GATGTAGTT, the switch fluorescence ratio stood at 1.01.

As for TAAATTGGGA, the switch fluorescence ratio is 1.01.

As for TTGCTGTTGA, the switch fluorescence ratio stood at 1.04.

In the case of ACATTTTGAA, the switch fluorescence ratio is 0.991.

As for GCTCCGAA, the switch fluorescence ratio worked out at 1.64.

In the case of AAACTCAGCA, the switch fluorescence ratio is 1.19.

As to CGCCATGGCA, the switch fluorescence ratio came out at 1.04.

TCTCATAACG: the switch fluorescence ratio came out at 1.01.

Turning to CCGCGGCAGG, the switch fluorescence ratio is 1.74.

In the case of TGAGACGTGT, the switch fluorescence ratio worked out at 1.

For the sequence AAGGGAACTT, the switch fluorescence ratio was 1.02.

Turning to CCTGCTAGGA, the switch fluorescence ratio came out at 1.43.

For CGGGGTCCGG, the switch fluorescence ratio is 0.989.

On to TGCTGATCTA, for which the switch fluorescence ratio came out at 0.993.

ATAATGTACG: the switch fluorescence ratio is 0.961.

TGGAACCTGG: the switch fluorescence ratio was determined as 1.

For the sequence CAGCTCTC, the switch fluorescence ratio was 1.05.

In the case of AACTGTCAGG, the switch fluorescence ratio turned out to be 0.962.

GGCTATGGGA: the switch fluorescence ratio came out at 1.01.

Take AATGTGCACA: the switch fluorescence ratio is 0.981.

For TATCCATTCT, the switch fluorescence ratio was 1.

For CAGGTCGGTA, the switch fluorescence ratio came out at 0.995.
